Results: paper PMC6919601, “Identification of Plasmodium dipeptidyl aminopeptidase allosteric inhibitors by high throughput screening” (PLoS ONE, 2019)
Several values for one entry are separate records, joined by “and”; a condition that tells them apart may be missing. Equal entries are not always repeated. The campaign covered roughly 110,000 compounds. About 230 (0.21%) showed an effect of 50% or more. This is one part of the list.

Target: DPAP1 (Plasmodium falciparum, UniProt Q8IIJ9)
Experiment: primary screen, percent inhibition; read by cleavage of a fluorogenic dipeptide substrate; higher = more effect of the substance
Design: species or system P. falciparum D10 trophozoite lysates; single well
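Also: 30 min substrate incubation versus DMSO and 10 µM JCP410 controls.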

Sequence of DPAP1 (Q8IIJ9 whole entry, looked up): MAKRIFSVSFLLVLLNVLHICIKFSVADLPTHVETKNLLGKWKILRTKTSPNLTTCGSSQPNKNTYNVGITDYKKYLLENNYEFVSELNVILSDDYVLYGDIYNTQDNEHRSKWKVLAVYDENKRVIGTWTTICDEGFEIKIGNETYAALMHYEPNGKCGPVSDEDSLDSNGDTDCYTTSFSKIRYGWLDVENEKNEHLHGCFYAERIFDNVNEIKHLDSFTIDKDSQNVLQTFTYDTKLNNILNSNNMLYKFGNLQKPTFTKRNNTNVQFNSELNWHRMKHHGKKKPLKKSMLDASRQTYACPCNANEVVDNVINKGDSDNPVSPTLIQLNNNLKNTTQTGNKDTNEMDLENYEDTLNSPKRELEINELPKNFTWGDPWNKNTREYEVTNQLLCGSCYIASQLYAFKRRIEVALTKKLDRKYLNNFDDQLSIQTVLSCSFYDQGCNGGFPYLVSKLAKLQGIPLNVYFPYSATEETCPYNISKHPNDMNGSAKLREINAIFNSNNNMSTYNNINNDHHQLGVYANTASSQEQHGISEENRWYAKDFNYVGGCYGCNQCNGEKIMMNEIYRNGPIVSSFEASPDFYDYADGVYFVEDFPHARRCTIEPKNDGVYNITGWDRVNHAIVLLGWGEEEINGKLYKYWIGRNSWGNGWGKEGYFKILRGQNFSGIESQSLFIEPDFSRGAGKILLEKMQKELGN

Row | Compound | % Inhibition @ 10 uM
1 | O=C(Nc1cccc2c1CCCC2)C1CCCCC1 | 4.22%
2 | Cc1cc(C)c2c(n1)sc1c(N3CCN(Cc4ccc(Cl)cc4)CC3)ncnc12 | 1.72%
3 | Cc1ccc2nc3c(cc(C(N)=O)c(=N)n3CCN3CCOCC3)c(=O)n2c1 | 3.6%
4 | CC1CC(C)CN(C(=O)CSc2nnc(-c3ccco3)o2)C1 (stereo not shown) | -4.03%
5 | COc1ccc2[nH]c(C)c(CCN3C(=O)C4CCCCC4C3=O)c2c1 (stereo not shown) | -3.34%
6 | Cc1ccc(S(=O)(=O)N(C)c2ccc(C(=O)N3CCCCC3)cc2)cc1 | -4.21%
7 | CCn1cc(C(=O)Nc2cccc(Br)c2)c(C)n1 | -3.12%
8 | COCCCNC(=O)NCc1cccn1Cc1ccccc1 | 3.64%
9 | Cc1cc(CNC(=O)c2cc3ccccc3oc2=O)c2ccccc2n1 | -5.96%
10 | COc1ccc2[nH]c3c(=O)n(CCCCCC(=O)NCc4ccccc4OC)c(=S)[nH]c3c2c1 | -0.431%
11 | O=C(NC1CCCCC1)c1sc2ccccc2c1Cl | -6.22%
12 | OC1CC2CCC(C1)N2CCOC(c1ccc(F)cc1)c1ccc(F)cc1 (stereo not shown) | 0.343% and -2.29%
13 | CC(C)CC(C(=O)NC1CCCCC1C)N1C(=O)c2ccccc2C1=O (stereo not shown) | 4.47%
14 | COc1ccccc1CNCc1ccc(C(F)(F)F)cc1 | -7.02%
15 | O=C1CC(N2CCN(c3ncccn3)CC2)C(=O)N1c1ccc(Br)cc1 (stereo not shown) | -3.12%
16 | O=C(NCCc1ccc(F)cc1)C(=O)NC1CCCCC1 | 4.68%
17 | CCc1ccc(C2C3=C(O)CC(c4ccccc4)CC3=NC(C)=C2C(=O)OCCOC)cc1 (stereo not shown) | -0.053%
18 | COc1cccc(-c2nc(CS(=O)(=O)CC(=O)N3CCN(C4CCCCC4)CC3)c(C)o2)c1 | 1.55%
19 | CCOC(=O)c1c(C)[nH]c(C)c1S(=O)(=O)N(C)Cc1ccccc1 | -1.79%
20 | C=CCOc1c(Br)cc(CNCC(C)O)cc1OC (stereo not shown) | -7.01%
21 | CCc1ccccc1NC(=O)c1cccc(Br)c1 | -7.06%
22 | C=CCNCC(=O)Nc1sc2c(c1C(=O)OCC)CCCC2 | -2.13%
23 | COc1ccc(S(=O)(=O)C(CC(=O)c2ccccc2)c2ccccc2)cc1 (stereo not shown) | 2.17%
24 | O=C(CCc1ccccc1)Nc1nc2nc(-c3ccccc3)cc(O)n2n1 | 0.401%
25 | O=C(O)C1CC(c2ccccc2)=NCCS1 (stereo not shown) | -0.0372%
26 | COc1cc(OC)c(OC)cc1/C=c1\sc2nnc(-c3ccccc3C)n2c1=O | 3.25%
27 | COc1ccc(OC)c(N(CC(=O)Nc2cccc(Cl)c2)S(C)(=O)=O)c1 | -7.61%
28 | CCN1C(=O)/C(=C/c2ccc[nH]2)C(=O)NC1=S | 1%
